Assay results taken from paper PMC4336329 (PLoS ONE, 2015).
The whole screen tested about 310,000 compounds, of which about 2,200 (0.71%) showed an effect of 50% or more. Effects have a minus sign here. This is one part of the list.

target: human ether-à-go-go-related gene (hERG) potassium channel (human, UniProt Q12809); test: primary screen, population patch clamp on CHO cells stably expressing hERG
Sequence (Q12809 whole entry, looked up): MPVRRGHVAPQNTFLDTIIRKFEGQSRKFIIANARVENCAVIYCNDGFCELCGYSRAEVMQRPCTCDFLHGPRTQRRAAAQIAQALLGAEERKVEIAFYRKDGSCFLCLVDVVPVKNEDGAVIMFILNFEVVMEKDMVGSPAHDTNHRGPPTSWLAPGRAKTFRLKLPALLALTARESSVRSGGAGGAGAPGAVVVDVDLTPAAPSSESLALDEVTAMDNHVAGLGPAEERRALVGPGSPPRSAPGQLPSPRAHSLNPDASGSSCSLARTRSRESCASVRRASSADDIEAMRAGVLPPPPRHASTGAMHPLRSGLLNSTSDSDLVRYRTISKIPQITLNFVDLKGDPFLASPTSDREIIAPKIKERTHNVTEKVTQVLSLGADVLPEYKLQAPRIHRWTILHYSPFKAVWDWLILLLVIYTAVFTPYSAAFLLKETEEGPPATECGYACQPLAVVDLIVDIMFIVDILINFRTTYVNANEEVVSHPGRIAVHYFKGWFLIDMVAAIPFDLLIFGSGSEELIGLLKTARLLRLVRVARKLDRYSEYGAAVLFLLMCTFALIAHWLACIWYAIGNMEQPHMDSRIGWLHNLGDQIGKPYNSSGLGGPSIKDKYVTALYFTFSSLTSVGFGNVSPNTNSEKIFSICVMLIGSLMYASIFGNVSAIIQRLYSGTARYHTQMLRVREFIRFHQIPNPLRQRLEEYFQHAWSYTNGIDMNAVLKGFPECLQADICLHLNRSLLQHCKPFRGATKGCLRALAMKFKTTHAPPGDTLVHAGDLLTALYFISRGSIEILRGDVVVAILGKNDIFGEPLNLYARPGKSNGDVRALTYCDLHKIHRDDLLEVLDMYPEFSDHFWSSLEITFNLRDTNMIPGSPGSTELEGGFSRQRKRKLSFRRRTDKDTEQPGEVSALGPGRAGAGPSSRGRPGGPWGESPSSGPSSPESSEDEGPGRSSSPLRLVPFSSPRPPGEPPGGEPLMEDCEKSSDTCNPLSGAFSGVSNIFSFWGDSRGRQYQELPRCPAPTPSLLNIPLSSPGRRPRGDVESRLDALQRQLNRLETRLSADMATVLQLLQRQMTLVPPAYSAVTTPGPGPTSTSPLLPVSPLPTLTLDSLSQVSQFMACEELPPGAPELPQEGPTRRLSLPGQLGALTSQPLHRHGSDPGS

SMILES	hERG current change (%, negative = inhibition) at 1uM [%]
CC(=O)c1ccc(N2CCN(C(=O)COc3ccc(F)cc3)CC2)c(F)c1	-62.7
Cc1ccc2cccc(O)c2[n+]1[O-]	6.61
Cc1csc(=O)n1CCC(=O)OCC(=O)NNC(=O)c1ccccc1	2.55
COc1ccc(S(=O)(=O)Nc2c(C)n(C)n(-c3ccccc3)c2=O)cc1Br	7.77
CS(=O)(=O)N(Cc1ccc(C(=O)N2CCc3ccccc3C2)cc1)c1ccccc1	12.3
CC(C)OC(=O)CC1C(=O)NCCN1C(=S)NC(=O)c1ccc(F)cc1 (centres unmarked)	1.09
S=C1Nc2ccccc2Sc2ccccc21	19.3
Cn1ncc(Br)c1C(=O)N/N=C/c1cccc(OC2CSC2)c1	-9.02
Cc1ccc2nsnc2c1NS(=O)(=O)c1c(C)ccc2nsnc12	9.84
COC(=O)c1[nH]c2cc(OC)ccc2c1NC(=O)c1ccc2c(c1)OCO2	4.52
Cc1ccc(N2C(=O)c3ccc(C(=O)Nc4cccnc4)cc3C2=O)c(C)c1	10.3
COC(=O)CCCC1=CC2=C(c3ccccc3)C(=O)C(C)(OC(=O)C3CCCC3)C(=O)C2=CN1c1ccccc1 (centres unmarked)	12.8
NC(=O)CC(NC(=O)Cc1cccc2ccccc12)c1ccc(NC2CCC2)c([N+](=O)[O-])c1 (centres unmarked)	-2.29
Cc1nn(-c2ccccc2)c(N2CCCC2)c1/C=N/NC(=S)Nc1ccccc1C(F)(F)F	11.7
CCCCn1c(CN(Cc2ccccc2)Cc2ccccc2)nc2c1c(=O)n(C)c(=O)n2C	1.52
Cc1cccc(CS(=O)(=O)Cc2ccc(C(=O)NCCCN3CCOCC3)o2)c1	-1.51
O=C(N[C@@H]1C[C@H]2CC[C@@H]1C2)c1ccco1	14.1
O=C(COC(=O)c1cc(S(=O)(=O)N2CCCC2)ccc1O)Nc1ccc(SC(F)F)cc1	-19.7
CCn1c(C)nc2cc(C(=O)N3N=C(CCOC)CC3(O)C(F)(F)F)ccc21 (centres unmarked)	8.06
C=C[C@]1(C)C[C@@H](OC(=O)CSCCN(CC)CC)[C@]2(C)C(C)CC[C@]3(CCC(=O)[C@H]32)[C@@H](C)[C@@H]1O.O=C(O)/C=C/C(=O)O (some centres unmarked)	-27.3
CC(C)(C)c1ccc(C(=O)NCC(=O)N/N=C/c2cccnc2)cc1	7.87
COCCNc1nc(C)cc(-c2cc(-c3ccc(Cl)cc3)on2)n1	3.1

SMILES	hERG current change (%, negative = inhibition) at 1uM [%]
Cc1ccc(NC(=O)CN(C)CC(=O)NC2CCCc3ccccc32)cc1 (centres unmarked)	-5.94
CCOC(=O)C1(Cc2cccc(OC)c2)CCN(Cc2ccc3c(c2)OCCO3)CC1	-4.27
CC1(C)Cc2c(cnn2-c2ccccc2)C(NC(=O)CCc2ccncc2)C1 (centres unmarked)	-35.9
CCN(Cc1ccncc1)Cc1cn(C)nc1-c1ccc(Oc2ccccc2)cc1	-1.75
O=C(NC1CCN(Cc2ccccc2)CC1)c1ccc(CS(=O)c2ccc(F)cc2)o1 (centres unmarked)	0.977
Nc1ccccc1SC1CC(=O)N(c2ccc3c(c2)OCO3)C1=O (centres unmarked)	14.3
O=C(NCCc1ccccc1)c1c(O)c2ccccc2[nH]c1=O	19.4
COCCN1C(=O)N[C@@H](c2cccc(F)c2)C(C(C)=O)=C1C	14.1
CCCCN(C(=O)c1ccccc1F)c1c(N)n(CCC)c(=O)[nH]c1=O	17.1
O=C(NC(=S)Nc1ccccc1)c1csnn1	14.3
CN(C)CCNC(=O)NC1CCCCC1	8.59
CCCCc1nc(NCc2ccccc2)c(C#N)c2c1CCCC2	2.62
Cl.c1ccc(CN2CCN(C3CCCSc4ccccc43)CC2)cc1 (centres unmarked)	15.8
CCC(C)[C@H](Nc1nc(-c2ccccc2)nc2c1oc1ccccc12)C(=O)O.Cl (some centres unmarked)	10.9
O=C(NCc1ccccn1)c1c(O)c2cccc3c2n(c1=O)CC3	0.466
Fc1ccccc1CSc1nnc(-c2cnccn2)n1Cc1ccco1	3.71
Cc1cc(N(CN2CCCC2=O)C(=O)c2ccc(F)cc2)no1	-10.2
CCC(Cc1ccccc1)NC(=O)/C=C/c1ccco1 (centres unmarked)	12.7
CC1=NN(C(=O)c2ccc(Cn3nc(C)c([N+](=O)[O-])c3C)cc2)C(O)(C(F)(F)F)C1 (centres unmarked)	-8.46
O=S(=O)(NCCc1ccccc1)c1cccc2nsnc12	1.55
O=C(NCCCCCNC(=O)c1ccccn1)c1ccccn1	10.2
C=CCN1c2ccccc2[C@]23C[C@@H](C(=O)OC)N(C(=O)C4CCC4)C2=NC(C(=O)OC)=C(C(=O)OC)[C@H]13	3.06

SMILES	hERG current change (%, negative = inhibition) at 1uM [%]
Cc1cc(NC(=O)CSc2nc(-c3cccs3)cc(C(F)(F)F)n2)no1	12.2
CC(C)COP(=O)(c1ccc(N(C)C)cc1)C(Nc1ccccc1)c1ccccc1 (centres unmarked)	12.3
O=C(CCSCCC(=O)Nc1ccccc1F)Nc1ccccc1F	9.32
C=CCn1c(SCC(=O)N(CC)CC)nc(O)cc1=O	11.8
CCOn1c(=O)c(-c2ccc(C)cc2)[n+]([O-])c2ccccc21	13.7
CC(=O)Nc1ccc(NC(=O)c2c(C)nn(Cc3ccccc3)c2Cl)cc1	9.13
CC(C)(C)c1ccc(-c2csc(NC(=O)CN3C(=O)NC4(CCCCC4)C3=O)n2)cc1	18.2
CCOC(=O)N1CCC(c2cc(=O)n3[nH]ccc3n2)CC1	16.5
CN(C)c1nc(NCc2ccccc2)nc(N/N=C/c2ccc(Br)cc2)n1	7.76
CC(C)C[C@H]1C(=O)N2CCC[C@H]2[C@]2(O)O[C@](NC(=O)[C@@H]3C=C4c5cccc6[nH]c(Br)c(c56)CC4N(C)C3)(C(C)C)C(=O)N12.CS(=O)(=O)O (some centres unmarked)	16.5
CCOC(=O)c1c(-c2ccc(C)cc2)csc1NC(=O)CCSc1nnc2ccccn12	7.31
O=c1[nH]cnc2nc(-c3ccccc3)c(-c3ccccc3)nc12	-9.89
Cc1nc2sc3c(c2c(=O)o1)CCC3	5.89
CCn1nc(C(C)C)cc1C(=O)N1CCCC(CO)(Cc2ccc(F)cc2F)C1 (centres unmarked)	5.81
O=C(Nc1sc2c(c1C(=O)O)CCC2)c1cccs1	17.6
O=C(NC1CCCCC1)c1cc(S(=O)(=O)N2CCCC2)ccc1Cl	10.8
COc1ccc(/C(C)=N/Nc2ncc(Cl)cc2Cl)c(O)c1	2.52
Cc1nc2c(c(=O)c3ccccc3n2C)c(=O)n1-c1ccccc1	9.45
Cc1nc(SCc2ccccc2F)c2cnn(-c3ccccc3)c2n1	7.34
CC(C)COc1ccc(CSCCNC(=S)Nc2ccccc2)cc1	9.95
CCCCNC(=O)N1CCN(c2ccccc2OC)CC1	5.81
CSc1nc(SCC(=O)NCc2ccco2)c2c3c(sc2n1)COC(C)(C)C3	-2.39

SMILES	hERG current change (%, negative = inhibition) at 1uM [%]
c1ccc(C2=Nn3c(nnc3-c3cccnc3)SC2)cc1	-4.73
CCc1ccc(C2N3CC4([N+](=O)[O-])CN2CC([N+](=O)[O-])(C3)C4(C)C)cc1 (centres unmarked)	9.86
O=C(c1ccc(Cn2cc(Br)cn2)o1)n1cccn1	10.5
CSCCC(NC(=O)C1CCC(C)CC1)C(=O)OCC(=O)c1ccc(Cl)cc1 (centres unmarked)	11.7
CN(Cc1cc(=O)[nH]c2ccccc12)C(=O)c1ccccc1	10.4
CN(C(=O)CSc1nc(O)cc(=O)n1C1CCCC1)c1ccccc1	4.58
COc1ccc(C(=O)NCC(=O)OCC(=O)c2ccc(Cl)cc2)cc1OC	-31.1
CCC(=O)c1cc(F)c(N2CCN(C(=O)Cc3ccccc3)CC2)cc1C	-4.24
O=C(COC(=O)c1cccc(F)c1)Nc1ccc2c(c1)OCCO2	10.3
Cc1cc(C)c(C)c(S(=O)(=O)NCC(=O)O)c1C	10.6
O=C(Cn1nc(C(=O)O)c2ccccc2c1=O)NCc1ccco1	11
CC1=Nc2cc(C(=O)N3CCCC3)ccc2Sc2c(C)ccc(C)c21	22
CCSc1ccccc1C(=O)NCc1ccco1	9.88
Cn1c(SCC(=O)n2c3c(c4ccccc42)CCCC3)nnc1-c1ccccc1	-4.41
O=C(NN=C1CCCCC1)NC1CCCCC1	10.1
CC(=O)c1cccc(CN2CCc3ccc(NC(=O)C4CCCO4)cc3C2)c1 (centres unmarked)	17.5
COC(=O)c1c(C)nn(-c2ccc(OC(F)(F)F)cc2)c1-c1snnc1C	3.65
COc1cc(C(C(=O)NC2CCCCC2)N(C(=O)Cc2c[nH]c3ccccc23)c2ccccc2C)cc(OC)c1OC (centres unmarked)	4.08
CN(Cc1cnccn1)C(=O)CC1C(=O)NCCN1Cc1c(F)cccc1Cl (centres unmarked)	19.6
Cc1ccc(S(=O)(=O)N2CCCOC2CNC(=O)C(=O)NC2CCCC2)cc1 (centres unmarked)	5.9
